From publication PMC4336329 (PLoS ONE, 2015)
Out of some 310,000 compounds screened, about 14,000 (4.5%) showed an effect of 50% or more. The effect is printed as a negative number. This is one part of the list.

What follows are molecules tested against human ether-à-go-go-related gene (hERG) potassium channel (human, UniProt Q12809) (assay: primary screen, population patch clamp on CHO cells stably expressing hERG).
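Also: peak tail current of the secondary pulse compared with the same well before compound.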

Chain of human ether-à-go-go-related gene (hERG) potassium channel (Q12809 whole entry, looked up): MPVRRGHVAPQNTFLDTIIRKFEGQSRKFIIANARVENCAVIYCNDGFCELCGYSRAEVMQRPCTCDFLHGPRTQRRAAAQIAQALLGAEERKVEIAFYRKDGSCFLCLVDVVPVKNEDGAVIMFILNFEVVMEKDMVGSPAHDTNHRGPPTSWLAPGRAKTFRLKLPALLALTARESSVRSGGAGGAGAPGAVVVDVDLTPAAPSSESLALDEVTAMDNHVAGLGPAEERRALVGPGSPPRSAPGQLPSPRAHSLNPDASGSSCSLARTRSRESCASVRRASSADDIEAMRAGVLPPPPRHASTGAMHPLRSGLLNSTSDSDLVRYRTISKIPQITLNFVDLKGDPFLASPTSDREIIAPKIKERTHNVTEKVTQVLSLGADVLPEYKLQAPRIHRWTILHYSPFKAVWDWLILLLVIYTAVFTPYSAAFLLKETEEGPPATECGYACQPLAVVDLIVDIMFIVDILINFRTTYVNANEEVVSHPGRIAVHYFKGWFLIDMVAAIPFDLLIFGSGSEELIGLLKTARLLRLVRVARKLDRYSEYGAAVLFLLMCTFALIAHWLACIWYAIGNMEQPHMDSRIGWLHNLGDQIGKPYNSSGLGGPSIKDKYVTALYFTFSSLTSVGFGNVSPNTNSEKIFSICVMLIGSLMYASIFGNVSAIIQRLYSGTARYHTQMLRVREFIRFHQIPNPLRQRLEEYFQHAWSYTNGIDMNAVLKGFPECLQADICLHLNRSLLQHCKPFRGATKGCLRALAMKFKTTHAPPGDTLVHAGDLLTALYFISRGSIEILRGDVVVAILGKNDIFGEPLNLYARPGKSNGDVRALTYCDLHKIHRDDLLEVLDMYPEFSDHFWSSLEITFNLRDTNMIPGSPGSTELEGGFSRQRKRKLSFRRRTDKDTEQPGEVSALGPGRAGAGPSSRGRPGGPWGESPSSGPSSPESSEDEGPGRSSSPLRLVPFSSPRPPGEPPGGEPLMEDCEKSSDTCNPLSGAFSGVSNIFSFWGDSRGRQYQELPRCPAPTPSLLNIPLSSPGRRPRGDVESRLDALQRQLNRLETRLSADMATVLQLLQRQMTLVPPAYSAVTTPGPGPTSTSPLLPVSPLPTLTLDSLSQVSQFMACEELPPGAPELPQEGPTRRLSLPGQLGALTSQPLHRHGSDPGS

**Q.** For Cc1nc2nc(SCC(=O)NCCCN3CCCCCC3)nn2c(C)c1Cc1ccccc1Cl, which “hERG current change (%, negative = inhibition) at 10uM” value is on record?
**A.** Its value is -25.6%.

**Q.** Which “hERG current change (%, negative = inhibition) at 10uM” value does the source give for COc1ccc(CNC(=O)c2noc3c2CCCC3)cc1 here?
**A.** The value was -3.49%.

**Q.** Which “hERG current change (%, negative = inhibition) at 10uM” value does the source give for NCCCNC(=O)c1ccc(/C=N/O)nc1 here?
**A.** The value was 15.7%.

**Q.** COc1ccc(NC(=O)c2cccnc2)cc1OCC(C)C was tested. Which “hERG current change (%, negative = inhibition) at 10uM” value did it give?
**A.** The value was 0.662%.

**Q.** For COc1ccc2oc(=N)c(-c3nnc4n3CCCCC4)cc2c1, which “hERG current change (%, negative = inhibition) at 10uM” value is on record?
**A.** The value was 4%.

**Q.** For C=C(C)COc1ccc(C2NC(=O)c3ccccc3O2)cc1OCC (stereo not shown), which “hERG current change (%, negative = inhibition) at 10uM” value is on record?
**A.** Its value is 14.7%.

**Q.** With CCC(C)NCC(=O)Nc1ccc(S(N)(=O)=O)cc1 (stereo not shown) as the molecule, how does the “hERG current change (%, negative = inhibition) at 10uM” value read?
**A.** The value was 26.7%.

**Q.** With O=C1CCN(C(=O)c2cccs2)c2ccccc21 as the molecule, how does the “hERG current change (%, negative = inhibition) at 10uM” value read?
**A.** Its value is -3.14%.

**Q.** Which “hERG current change (%, negative = inhibition) at 10uM” value does the source give for CCN(C(=O)COC(=O)/C=C/c1cccc(Br)c1)C1CCS(=O)(=O)C1 (stereo not shown) here?
**A.** Its value is -17.2%.

**Q.** How did the “hERG current change (%, negative = inhibition) at 10uM” value turn out when O=C1NC(=Nc2ccc(Cl)cc2)SC1Cc1cc(Cl)ccc1Cl (stereo not shown) was run?
**A.** Its value is 29.7%.

**Q.** Which “hERG current change (%, negative = inhibition) at 10uM” value does the source give for CCOC(=O)Cc1csc(NC(=O)C2CCCCC2C(=O)O)n1 (stereo not shown) here?
**A.** The value was 2.05%.

**Q.** COC(=O)c1ccccc1NC(=S)NC(=O)c1ccc2c(c1)OCO2 was tested. Which “hERG current change (%, negative = inhibition) at 10uM” value did it give?
**A.** The value was 32.6%.

**Q.** Which “hERG current change (%, negative = inhibition) at 10uM” value does the source give for COC(=O)c1scc(S(=O)(=O)C(C)C)c1N/N=C(\C#N)C(=O)c1ccc(Cl)cc1 here?
**A.** Its value is 24.2%.

**Q.** Which “hERG current change (%, negative = inhibition) at 10uM” value does the source give for O=C(Nc1ccc(Cl)c(Cl)c1)O/N=C/c1ccncc1 here?
**A.** The value was 11.2%.

**Q.** For Cc1ccc(C)c(N2CCN(C(=O)CN(C)S(=O)(=O)c3cnc[nH]3)CC2)c1, which “hERG current change (%, negative = inhibition) at 10uM” value is on record?
**A.** The value was 4.13%.

**Q.** Which “hERG current change (%, negative = inhibition) at 10uM” value does the source give for O=C1CCc2cc(NS(=O)(=O)c3cc(F)ccc3F)cc3c2N1CC3 here?
**A.** The value was -1.07%.

**Q.** With CCC(C)N(C(=O)COC(=O)CNC(=O)c1sc2ccccc2c1Cl)C1CCS(=O)(=O)C1 (stereo not shown) as the molecule, how does the “hERG current change (%, negative = inhibition) at 10uM” value read?
**A.** The value was 3.2%.

**Q.** For O=C(CN1C(=O)c2cccc3cccc1c23)N1CCN(c2ccc(F)cc2)CC1, which “hERG current change (%, negative = inhibition) at 10uM” value is on record?
**A.** Its value is 9.69%.

**Q.** With COc1ccc(C(=O)NC(=S)NNC(=O)c2c(-c3ccccc3)noc2C)cc1 as the molecule, how does the “hERG current change (%, negative = inhibition) at 10uM” value read?
**A.** The value was 17%.

**Q.** Cc1ccc(S(=O)(=O)N(c2cccc(C(F)(F)F)c2)C2C=CS(=O)(=O)C2)cc1 (stereo not shown) was tested. Which “hERG current change (%, negative = inhibition) at 10uM” value did it give?
**A.** Its value is 6.3%.

**Q.** COC(=O)Nc1ccc(SCC(=O)c2ccc(Cl)cc2)cc1 was tested. Which “hERG current change (%, negative = inhibition) at 10uM” value did it give?
**A.** The value was 21.5%.

**Q.** For CCCn1c(C2CC(=O)N(c3cc(OC)ccc3OC)C2)nc2ccccc21 (stereo not shown), which “hERG current change (%, negative = inhibition) at 10uM” value is on record?
**A.** Its value is -18.3%.

**Q.** For Cc1ccc(-n2c(N)cc(=O)nc2SCC(=O)N2CCN(c3ccccc3)CC2)cc1C, which “hERG current change (%, negative = inhibition) at 10uM” value is on record?
**A.** Its value is 12.7%.

**Q.** For CC(=O)Nc1ccc(S(=O)(=O)N2CCN(c3cc(C(F)(F)F)ccn3)CC2)cc1, which “hERG current change (%, negative = inhibition) at 10uM” value is on record?
**A.** The value was -7.64%.

**Q.** How did the “hERG current change (%, negative = inhibition) at 10uM” value turn out when COc1ccc(/C(O)=C2/C(=O)C(=O)N(CCN(C)C)C2c2cccnc2)cc1OC (stereo not shown) was run?
**A.** Its value is -8.56%.

**Q.** How did the “hERG current change (%, negative = inhibition) at 10uM” value turn out when Cn1c(-c2ccccc2)c(C=O)c2ccccc21 was run?
**A.** Its value is -2.25%.

**Q.** Which “hERG current change (%, negative = inhibition) at 10uM” value does the source give for COc1ccc2c(c1)[C@@]13CCC=C[C@H]1[C@@H](C2)NCC3.Cl here?
**A.** The value was 4.36%.

**Q.** NS(=O)(=O)c1ccc(CCNCC(=O)NC2CC2)cc1 was tested. Which “hERG current change (%, negative = inhibition) at 10uM” value did it give?
**A.** The value was -64.1%.

**Q.** With Cc1ccc(S(=O)(=O)N2CCOCC2)cc1NC(=O)COC(=O)CCC(=O)c1cccs1 as the molecule, how does the “hERG current change (%, negative = inhibition) at 10uM” value read?
**A.** The value was -13.8%.

**Q.** How did the “hERG current change (%, negative = inhibition) at 10uM” value turn out when O=C(O)CCC1(C(=O)O)OCCc2ccccc21 (stereo not shown) was run?
**A.** The value was 0.642%.

**Q.** Which “hERG current change (%, negative = inhibition) at 10uM” value does the source give for O=C(Nc1ccnn1C1CCN(C/C=C/c2ccccc2)CC1)C1CCCC1 here?
**A.** Its value is -73%.

**Q.** O=C(CNC(=O)OCc1ccccc1)Nc1ccc(F)cc1 was tested. Which “hERG current change (%, negative = inhibition) at 10uM” value did it give?
**A.** Its value is 6.08%.

**Q.** With Oc1ccc(-c2nc3ncccn3c2Nc2ccc3c(c2)OCO3)cc1 as the molecule, how does the “hERG current change (%, negative = inhibition) at 10uM” value read?
**A.** Its value is 0.66%.

**Q.** For COc1ccc(C2CC(c3cccs3)=NN2c2ccccc2)cc1 (stereo not shown), which “hERG current change (%, negative = inhibition) at 10uM” value is on record?
**A.** Its value is 7.41%.

**Q.** O=C(CNC(=S)N(Cc1ccccc1)Cc1cccnc1)NCc1ccccc1 was tested. Which “hERG current change (%, negative = inhibition) at 10uM” value did it give?
**A.** Its value is -0.186%.

**Q.** Which “hERG current change (%, negative = inhibition) at 10uM” value does the source give for CCCOc1ccc(C2C(C(=O)OC)=CN(CCOC)C=C2C(=O)OC)cc1 here?
**A.** Its value is -29.5%.

**Q.** With O=C1CSC(c2cn(-c3ccccc3)nc2-c2cc3ccccc3oc2=O)N1Cc1ccco1 (stereo not shown) as the molecule, how does the “hERG current change (%, negative = inhibition) at 10uM” value read?
**A.** The value was -16.6%.

**Q.** CSc1ccc(Cl)c(C(=O)OCC(=O)NCC(C)C)c1 was tested. Which “hERG current change (%, negative = inhibition) at 10uM” value did it give?
**A.** The value was -21%.

**Q.** CC1=C/C(=N\OS(=O)(=O)c2ccccc2)C(C(C)C)=CC1=O was tested. Which “hERG current change (%, negative = inhibition) at 10uM” value did it give?
**A.** The value was 22%.

**Q.** For Cc1ccc(NC(=S)N2CCC(N(C)CC3CCCO3)CC2)cc1 (stereo not shown), which “hERG current change (%, negative = inhibition) at 10uM” value is on record?
**A.** The value was -4.57%.

**Q.** How did the “hERG current change (%, negative = inhibition) at 10uM” value turn out when COc1cccc(S(=O)(=O)NCc2ccc(C(=O)N3CCN(Cc4ccccc4)CC3)cc2)c1 was run?
**A.** Its value is -1.68%.

**Q.** With CCN(CC)S(=O)(=O)c1ccc(OC)c(NC(=O)CSc2ccccc2)c1 as the molecule, how does the “hERG current change (%, negative = inhibition) at 10uM” value read?
**A.** Its value is -72.9%.

**Q.** With CC1CCN(C(=O)c2[nH]cnc2C(=O)Nc2cccc(Cl)c2)CC1 as the molecule, how does the “hERG current change (%, negative = inhibition) at 10uM” value read?
**A.** Its value is 13.8%.

**Q.** How did the “hERG current change (%, negative = inhibition) at 10uM” value turn out when Cc1cccc(OCCNC(=O)CSc2ccc(C(F)(F)F)cc2[N+](=O)[O-])c1 was run?
**A.** The value was 12.2%.

**Q.** O=S(=O)(NN1CCOCC1)c1ccc(Br)s1 was tested. Which “hERG current change (%, negative = inhibition) at 10uM” value did it give?
**A.** Its value is 5.48%.

**Q.** For c1ccc(-c2nnc(-c3ccccn3)s2)nc1, which “hERG current change (%, negative = inhibition) at 10uM” value is on record?
**A.** Its value is 14.4%.

**Q.** How did the “hERG current change (%, negative = inhibition) at 10uM” value turn out when Cc1cccc(-c2ccc(NC(=O)C3CCN(CC4CC4)CC3)cc2)c1 was run?
**A.** The value was -70.9%.

**Q.** How did the “hERG current change (%, negative = inhibition) at 10uM” value turn out when CCC(C)(C(=O)NC1CCCCC1)N(C(=O)CNC(C)=O)c1c(C)n(C)n(-c2ccccc2)c1=O (stereo not shown) was run?
**A.** The value was 6.14%.

**Q.** With COc1cc(/C=C/C(=O)O)cc(S(=O)(=O)Nc2ccc3[nH]c(=O)[nH]c3c2)c1OC as the molecule, how does the “hERG current change (%, negative = inhibition) at 10uM” value read?
**A.** Its value is 14.9%.

**Q.** With O=C(NNC(=S)Nc1cccc(C(F)(F)F)c1)c1ccc(Cl)cc1Cl as the molecule, how does the “hERG current change (%, negative = inhibition) at 10uM” value read?
**A.** The value was 17.5%.

**Q.** COc1ccc(C(=O)COC(=O)CCN2C(=O)C3C4CC(C(Br)C4Br)C3C2=O)cc1 (stereo not shown) was tested. Which “hERG current change (%, negative = inhibition) at 10uM” value did it give?
**A.** The value was 11.5%.

**Q.** CC(C)(C)OC(=O)NCCCCCc1nnc(SCc2c(F)cccc2Cl)o1 was tested. Which “hERG current change (%, negative = inhibition) at 10uM” value did it give?
**A.** Its value is -3.15%.

**Q.** How did the “hERG current change (%, negative = inhibition) at 10uM” value turn out when Cc1cc(C(=O)CSc2nc3ccc(Cl)cc3[nH]2)c(C)n1Cc1ccco1 was run?
**A.** Its value is 6.99%.

**Q.** With CCN(CC(=O)Nc1ccccc1C(F)(F)F)C(=O)c1cccc(S(=O)(=O)N2CCN(C)CC2)c1 as the molecule, how does the “hERG current change (%, negative = inhibition) at 10uM” value read?
**A.** Its value is 0.426%.

**Q.** Which “hERG current change (%, negative = inhibition) at 10uM” value does the source give for Cc1ccc(S(=O)(=O)N2CCN(C(=O)c3ccc4c(c3)OCO4)CC2)cc1 here?
**A.** The value was -17.4%.
